# Laboratory results from the supplement of paper PMC8728848.
# This is one part of the list.
# B1: Cohesin-hDCIR (Homo sapiens) (protein)
# chain: LDDLDAVRIKVDTVNAKPGDTVRIPVRFSGIPSKGIANCDFVYSYDPNVLEIIEIEPGDIIVDPNPDKSFDTAVYPDRKIIVFLFAEDSGTGAYAITKDGVFATIVAKVKEGAPNGLSVIKFVEVGGFANNDLVEQKTQFFDGGANVGDTTEPATPTTPVTTPTTTDDLDAASQKYSQLLEKKTTKELVHTTLECVKKNMPVEETAWSCCPKNWKSFSSNCYFISTESASWQDSEKDCARMEAHLLVINTQEEQDFIFQNLQEESAYFVGLSDPEGQRHWQWVDQTPYNESSTFWHPREPSDPNERCVVLNFRKSPKRWGWNDVNCLGPQRSVCEMMKIHLHHHHHH
# Legend:
# Experiment in all cases: glycan array binding signal (z-score within array); higher = stronger binding
# Details in all cases: glycan notation: IUPAC condensed, linker removed
# [1] = biological target: Fuc(a1-3)[Gal(b1-4)]GlcNAc(b1-3)Gal(b1-4)[Fuc(a1-3)]GlcNAc
# Outline: (§1)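 Arrays were curated from the Consortium for Functional Glycomics database, 3228 in total, and kept only where the protein sequence was available. Binding is expressed as a within-array Z-score. This score was averaged across arrays of the same protein sequence at different concentrations or buffers and across linkers, and negative values can be read as non-binding.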
# [2] = biological target: Fuc(a1-3)[Gal(b1-4)]GlcNAc(b1-3)Gal(b1-4)[Fuc(a1-3)]GlcNAc(b1-3)Gal(b1-4)[Fuc(a1-3)]GlcNAc
# Outline: as §1
# [3] = biological target: Fuc(a1-3)[Gal(b1-4)]GlcNAc(b1-3)GalNAc
# Outline: as §1
# [4] = biological target: Fuc(a1-3)[Gal(b1-4)]GlcNAc(b1-6)GalNAc
# Outline: as §1
# [5] = biological target: Fuc(a1-3)[Gal(b1-4)]GlcNAc(b1-6)[Gal(b1-3)GlcNAc(b1-3)]Gal(b1-4)Glc
# Outline: as §1
# [6] = biological target: Fuc(a1-3)[Gal(b1-4)]GlcNAc6S
# Outline: as §1
# [7] = biological target: Fuc(a1-3)[Gal3S(b1-4)]Glc
# Outline: as §1
# [8] = biological target: Fuc(a1-3)[Gal3S(b1-4)]GlcNAc
# Outline: as §1
# [9] = biological target: Fuc(a1-3)[Gal3S(b1-4)]GlcNAc6S
# Outline: as §1
# [10] = biological target: Fuc(a1-3)[GalNAc(b1-4)]GlcNAc
# Outline: as §1
# [11] = biological target: Fuc(a1-3)[GalNAc(b1-4)]GlcNAc6S
# Outline: as §1
# Fuc(a1-4)GlcNAc = biological target: Fuc(a1-4)GlcNAc
# Outline: as §1
# Fuc(b1-3)GlcNAc = biological target: Fuc(b1-3)GlcNAc
# Outline: as §1
# Gal(a1-2)Gal = biological target: Gal(a1-2)Gal
# Outline: as §1
# Gal(a1-3)Gal = biological target: Gal(a1-3)Gal
# Outline: as §1
# Gal(a1-3)Gal(b1-3)GlcNAc = biological target: Gal(a1-3)Gal(b1-3)GlcNAc
# Outline: as §1
# [12] = biological target: Gal(a1-3)Gal(b1-3)GlcNAc(b1-2)Man
# Outline: as §1
# [13] = biological target: Gal(a1-3)Gal(b1-3)GlcNAc(b1-2)Man(a1-3)[Gal(a1-3)Gal(b1-3)GlcNAc(b1-2)Man(a1-6)]Man(b1-4)GlcNAc(b1-4)GlcNAc
# Outline: as §1
# [14] = biological target: Gal(a1-3)Gal(b1-3)GlcNAc(b1-3)GalNAc
# Outline: as §1
# [15] = biological target: Gal(a1-3)Gal(b1-3)GlcNAc(b1-6)GalNAc
# Outline: as §1
# [16] = biological target: Gal(a1-3)Gal(b1-3)[Fuc(a1-4)]GlcNAc(b1-2)Man(a1-3)[Gal(a1-3)Gal(b1-3)[Fuc(a1-4)]GlcNAc(b1-2)Man(a1-6)]Man(b1-4)GlcNAc(b1-4)GlcNAc
# Outline: as §1
# Gal(a1-3)Gal(b1-4)Glc = biological target: Gal(a1-3)Gal(b1-4)Glc
# Outline: as §1
# Gal(a1-3)Gal(b1-4)GlcNAc = biological target: Gal(a1-3)Gal(b1-4)GlcNAc
# Outline: as §1
# [17] = biological target: Gal(a1-3)Gal(b1-4)GlcNAc(b1-2)Man
# Outline: as §1
# [18] = biological target: Gal(a1-3)Gal(b1-4)GlcNAc(b1-2)Man(a1-3)[Gal(a1-3)Gal(b1-4)GlcNAc(b1-2)Man(a1-6)]Man(b1-4)GlcNAc(b1-4)GlcNAc
# Outline: as §1
# [19] = biological target: Gal(a1-3)Gal(b1-4)GlcNAc(b1-3)GalNAc
# Outline: as §1
# [20] = biological target: Gal(a1-3)Gal(b1-4)GlcNAc(b1-6)GalNAc
# Outline: as §1
# [21] = biological target: Gal(a1-3)Gal(b1-4)[Fuc(a1-3)]GlcNAc
# Outline: as §1
# [22] = biological target: Gal(a1-3)Gal(b1-4)[Fuc(a1-3)]GlcNAc(b1-2)Man(a1-3)[Gal(a1-3)Gal(b1-4)[Fuc(a1-3)]GlcNAc(b1-2)Man(a1-6)]Man(b1-4)GlcNAc(b1-4)GlcNAc
# Outline: as §1
# Gal(a1-3)GalNAc = biological target: Gal(a1-3)GalNAc
# Outline: as §1
# [23] = biological target: Gal(a1-3)[Gal(a1-4)]Gal(b1-4)GlcNAc
# Outline: as §1
# [24] = biological target: Gal(a1-4)Gal(b1-3)GlcNAc(b1-2)Man(a1-3)[Gal(a1-4)Gal(b1-3)GlcNAc(b1-2)Man(a1-6)]Man(b1-4)GlcNAc(b1-4)GlcNAc
# Outline: as §1
# Gal(a1-4)Gal(b1-4)Glc = biological target: Gal(a1-4)Gal(b1-4)Glc
# Outline: as §1
# Gal(a1-4)Gal(b1-4)GlcNAc = biological target: Gal(a1-4)Gal(b1-4)GlcNAc
# Outline: as §1
# [25] = biological target: Gal(a1-4)Gal(b1-4)GlcNAc(b1-2)Man(a1-3)[Gal(a1-4)Gal(b1-4)GlcNAc(b1-2)Man(a1-6)]Man(b1-4)GlcNAc(b1-4)GlcNAc
# Outline: as §1
# [26] = biological target: Gal(a1-4)Gal(b1-4)GlcNAc(b1-3)Gal(b1-4)Glc
# Outline: as §1
# Gal(a1-4)GlcNAc = biological target: Gal(a1-4)GlcNAc
# Outline: as §1
# Gal(a1-6)Glc = biological target: Gal(a1-6)Glc
# Outline: as §1
binder,measurement,setting,value
B1,glycan array binding signal (z-score),[1],0.161
same,glycan array binding signal (z-score),[2],-0.418
same,glycan array binding signal (z-score),[3],1.16
same,glycan array binding signal (z-score),[4],0.525
same,glycan array binding signal (z-score),[5],-0.514
same,glycan array binding signal (z-score),[6],-0.73
same,glycan array binding signal (z-score),[7],-0.257
same,glycan array binding signal (z-score),[8],0.773
same,glycan array binding signal (z-score),[9],-0.163
same,glycan array binding signal (z-score),[10],1.71
same,glycan array binding signal (z-score),[11],0.081
same,glycan array binding signal (z-score),Fuc(a1-4)GlcNAc,0.013
same,glycan array binding signal (z-score),Fuc(b1-3)GlcNAc,-0.259
same,glycan array binding signal (z-score),Gal(a1-2)Gal,-0.065
same,glycan array binding signal (z-score),Gal(a1-3)Gal,-0.678
same,glycan array binding signal (z-score),Gal(a1-3)Gal(b1-3)GlcNAc,2.28
same,glycan array binding signal (z-score),[12],-0.432
same,glycan array binding signal (z-score),[13],-0.058
same,glycan array binding signal (z-score),[14],-0.183
same,glycan array binding signal (z-score),[15],2.7
same,glycan array binding signal (z-score),[16],-0.471
same,glycan array binding signal (z-score),Gal(a1-3)Gal(b1-4)Glc,-0.573
same,glycan array binding signal (z-score),Gal(a1-3)Gal(b1-4)GlcNAc,-0.455
same,glycan array binding signal (z-score),[17],0.022
same,glycan array binding signal (z-score),[18],0.737
same,glycan array binding signal (z-score),[19],0.487
same,glycan array binding signal (z-score),[20],5.08
same,glycan array binding signal (z-score),[21],-0.481
same,glycan array binding signal (z-score),[22],0.016
same,glycan array binding signal (z-score),Gal(a1-3)GalNAc,-0.529
same,glycan array binding signal (z-score),[23],-0.584
same,glycan array binding signal (z-score),[24],1.44
same,glycan array binding signal (z-score),Gal(a1-4)Gal(b1-4)Glc,-0.021
same,glycan array binding signal (z-score),Gal(a1-4)Gal(b1-4)GlcNAc,-0.12
same,glycan array binding signal (z-score),[25],-0.225
same,glycan array binding signal (z-score),[26],-0.358
same,glycan array binding signal (z-score),Gal(a1-4)GlcNAc,-0.042
same,glycan array binding signal (z-score),Gal(a1-6)Glc,-0.425
